# PMC4336329 (PLoS ONE, 2015)
# The whole screen tested about 310,000 compounds, of which about 14,000 (4.5%) showed an effect of 50% or more. Effects have a minus sign here. Some of the results follow.
# Biological target: human ether-à-go-go-related gene (hERG) potassium channel (human, UniProt Q12809)
# Assay: primary screen, population patch clamp on CHO cells stably expressing hERG
# 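Further: peak tail current of the secondary pulse compared with the same well before compound.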
# Chain of human ether-à-go-go-related gene (hERG) potassium channel (Q12809 whole entry, looked up): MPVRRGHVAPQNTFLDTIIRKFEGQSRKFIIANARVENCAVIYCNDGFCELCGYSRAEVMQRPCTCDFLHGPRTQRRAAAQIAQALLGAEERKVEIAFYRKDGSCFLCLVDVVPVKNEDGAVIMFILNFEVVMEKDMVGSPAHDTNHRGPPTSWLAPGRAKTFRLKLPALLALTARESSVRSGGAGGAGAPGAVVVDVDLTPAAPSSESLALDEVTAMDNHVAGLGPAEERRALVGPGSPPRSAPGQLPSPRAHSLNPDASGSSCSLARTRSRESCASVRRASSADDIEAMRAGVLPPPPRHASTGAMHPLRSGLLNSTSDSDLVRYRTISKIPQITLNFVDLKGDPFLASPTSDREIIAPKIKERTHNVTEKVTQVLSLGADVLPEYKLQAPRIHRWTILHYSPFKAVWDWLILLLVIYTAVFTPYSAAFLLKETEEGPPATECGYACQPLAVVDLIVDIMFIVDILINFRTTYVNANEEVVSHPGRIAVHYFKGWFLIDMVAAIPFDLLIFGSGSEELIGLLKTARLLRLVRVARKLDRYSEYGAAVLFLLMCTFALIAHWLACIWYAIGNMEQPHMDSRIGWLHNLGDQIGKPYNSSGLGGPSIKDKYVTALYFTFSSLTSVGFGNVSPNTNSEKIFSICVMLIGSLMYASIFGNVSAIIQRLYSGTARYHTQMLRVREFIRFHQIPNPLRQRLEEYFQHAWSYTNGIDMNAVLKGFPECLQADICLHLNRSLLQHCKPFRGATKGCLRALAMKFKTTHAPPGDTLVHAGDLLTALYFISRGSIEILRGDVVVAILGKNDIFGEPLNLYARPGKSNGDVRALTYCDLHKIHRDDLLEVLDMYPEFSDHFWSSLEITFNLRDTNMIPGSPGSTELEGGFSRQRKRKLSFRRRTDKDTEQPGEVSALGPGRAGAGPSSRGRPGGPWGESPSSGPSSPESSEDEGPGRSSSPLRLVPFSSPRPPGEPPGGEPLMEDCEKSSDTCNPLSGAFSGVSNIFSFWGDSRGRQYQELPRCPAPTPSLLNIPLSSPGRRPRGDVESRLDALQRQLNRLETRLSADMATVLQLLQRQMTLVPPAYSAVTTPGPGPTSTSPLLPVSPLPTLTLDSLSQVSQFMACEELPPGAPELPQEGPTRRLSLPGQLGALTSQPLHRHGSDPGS
row,Compound,"hERG current change (%, negative = inhibition) at 10uM [%]"
1,O=C(CC(=O)N/N=C\c1ccc(F)cc1)NCCc1ccccc1,17.2
2,CC1CCN(C(=O)c2ccc3c(c2)NC(=O)CN3)CC1,8.49
3,CC1CN(CCOCCSc2ccccc2)CC(C)O1.Cl (centres unmarked),-14.9
4,Cc1c(C(=O)OC(C)C)sc(N)c1C(=O)OC(C)C,-6.59
5,COc1ccccc1N1CCN(c2nc(C)nc3c2oc2ccccc23)CC1.Cl,-1.5
6,COc1cccc(/C=N/NC(=O)c2c(C)nc3ccc(Cl)cn23)c1O,19
7,O=C1NCCN1Cc1ccc(F)cc1,-1.99
8,OCCNCCCCCOc1ccc(F)cc1,-12.2
9,COc1ccccc1N1CCN(C(c2cccs2)C(C)NC(=O)c2ccncc2)CC1 (centres unmarked),-6.58
10,CCc1ccccc1NC(=O)c1cc(-c2ccc(F)cc2)on1,25.8
11,O=C1COc2ccc(C(=O)COC(=O)/C=C/c3ccco3)cc2N1,5.09
12,COc1ccc(C(=O)Nc2ccc3c(c2)OCCO3)cc1Br,9.98
13,CCc1cc2cc(C(=O)N3CCN(Cc4ccccc4)CC3)sc2s1,-36.7
14,CCOC(=O)C1(CCOC)CCN(C(=O)c2ccc(CSC)o2)CC1,0.525
15,Cc1cccc(C)c1NC(=O)CN(C)C(=O)c1ccccc1C(=O)N(C)Cc1ccccc1,1.05
16,CC(=O)Nc1ccc(/C=C/c2ccc3cccc([N+](=O)[O-])c3n2)cc1,-7.33
17,Cc1cc([N+](=O)[O-])cc2c1NC(=O)C2(O)N1CCCCCC1 (centres unmarked),-13.7
18,O=C(C1CCCCN1S(=O)(=O)c1ccccc1)N1CCCCC1 (centres unmarked),-1.03
19,O=C(CSC1CN(C(c2ccccc2)c2ccccc2)C1)N/N=C/c1ccccc1,1.64
20,COc1cc(Cl)ccc1OCc1cc(C(=O)N[C@H]2CCCCNC2=O)no1,-23
21,CCC(C)c1ccc(N(CC(=O)NC(C)(C)C)C(=O)CNC(=O)c2cccs2)cc1 (centres unmarked),22.7
22,Cc1ccc(S(=O)(=O)N2CCC(C(=O)OCC(=O)N3CCCCC3C)CC2)cc1C (centres unmarked),-0.662
23,CC(=O)Nc1ccc(S(=O)(=O)N2CCCc3ccccc32)cc1,-16.7

row,Compound,"hERG current change (%, negative = inhibition) at 10uM [%]"
1,Cn1nnc2cc(NC(=O)Nc3cccc(C(F)(F)F)c3)ccc21,19
2,Cc1ccc2c(c1)cc1c(=O)n(CC(=O)NCc3ccccn3)nc(C)n12,-7.45
3,COc1ccccc1C(CNC(=O)C1CC(=O)N(Cc2ccccc2)C1)N1CCCC1 (centres unmarked),9.32
4,S=c1[nH]nc(-c2cccnc2)n1/N=C/C(Cl)=C\c1ccccc1,10.4
5,CCN(CC)c1ccc(S(=O)(=O)N2CCOCC2)cc1NC(=O)COC(=O)c1ccco1,-34.9
6,COC(=O)C1CCN(C(=O)COC(=O)c2cc([N+](=O)[O-])ccc2N2CCOCC2)CC1,-13.6
7,CC(/C=C1\SC(=S)N(NS(=O)(=O)c2ccccc2)C1=O)=C\c1ccccc1,-5.09
8,CC(C)N(Cc1ccccc1)S(=O)(=O)c1ccc2c(c1)NC(=O)CO2,5.3
9,O=C(c1cn(-c2ccccc2)nc1-c1ccccc1)n1nnc2ccccc21,12
10,CCOC(=O)N1CCC(NS(=O)(=O)c2cc(C(=O)OC)n(C)c2)CC1,5.24
11,O=C(NCc1ccco1)C1CCCN1C(=O)Nc1ccccc1[N+](=O)[O-] (centres unmarked),8.59
12,CN(C)/C=C(\C#N)C(N)=C(C#N)C#N,16.9
13,Cc1cc(C)c(C#N)c(OCC(=O)Nc2ccccc2)n1,12.1
14,Cc1ccc(C)c(C(=O)CSc2nc(C)cc(=O)[nH]2)c1,10.9
15,Cc1cc(C)n2cc(CSc3nnnn3C)nc2n1,2.06
16,Cc1c(O)c(=O)ccn1Cc1ccccc1,6.39
17,O=S(=O)(c1ccc(F)cc1)N1CCN(c2ccc(F)cc2)CC1,-14.5
18,CC(C)CNC(=O)c1ccccc1NC(=O)CN(c1ccc2c(c1)OCCO2)S(C)(=O)=O,2.61
19,COc1ccc(C(C)=O)cc1CC(=O)Nc1ccc2c(c1)CCC2,4.13
20,CCCSc1ccc([C@@H]2[C@H]3C(=O)N(CC)C(=O)[C@H]3[C@]3(C(=O)OC)CCCN23)cc1OC.O=C(O)C(F)(F)F,-34.8
21,Brc1ccccc1OCCOc1cccc2cccnc12,14.1
22,COc1ccc(NC(=O)c2sc(-c3ccccc3)nc2C)c(OC)c1,11.9
23,Cc1c(OCC(=O)NCCN2CCOCC2)ccc2c1oc(=O)c1ccccc12,-59.6

row,Compound,"hERG current change (%, negative = inhibition) at 10uM [%]"
1,COc1ccc2[nH]c(=O)c(CN(C)C(=O)c3ccncc3)cc2c1,-4.37
2,Cc1nc(CC(=O)N2CCN(S(=O)(=O)c3ccccc3C#N)CC2)cs1,10.3
3,CC(=O)Nc1ccc(NC(=O)CCCSc2nc3ccccc3s2)cc1,5.25
4,CCOC(=O)[C@H]1[C@H]2COc3ccccc3[C@@H]2N2C(=O)c3ccc(C)cc3NC(=O)[C@@]12C,-3.64
5,CCc1ccc(OCCCC(=O)Nc2cccc(C(=O)O)c2)cc1,10.7
6,COc1ccc2[nH]c(=O)c(CN(Cc3ccccc3OC)Cc3nnnn3CC3CCCO3)cc2c1 (centres unmarked),-40.7
7,CCCCOC(=O)c1ccc(NC(=O)COC(=O)CSc2nc(C)cc(C)n2)cc1,13.5
8,CCCOc1ccc(-c2nnn(CC(=O)N3CCCCC3)n2)cc1,12.9
9,CC(=O)NC1=NN(C(C)=O)C2(S1)C(=O)N(CC(C)C)c1ccc(C)cc12 (centres unmarked),12.1
10,Cn1c(=O)c2c(SCC(=O)N3CCOCC3)nc(C3CC3)nc2n(C)c1=O,-11.6
11,O=C(c1ccc2c(=O)n3c(nc2c1)CCCCC3)N1CCN(c2ccc([N+](=O)[O-])cc2)CC1,-73
12,O=C(CCl)c1ccc2[nH]c(=O)oc2c1,11.8
13,COc1cccc(/C=N/NC(=O)C[n+]2ccccc2)c1OC.[Cl-],-6.23
14,CN1CCN(S(=O)(=O)c2cccc(C(=O)Nc3nc(-c4ccccc4)cs3)c2)CC1,-25.9
15,O=C(Nc1ccc(S(=O)(=O)N2CCCC2)cc1)c1cccnc1,5.48
16,CCCCn1c(N)c(N(CCOC)C(=O)CN2C(=O)C3CCCCC3C2=O)c(=O)[nH]c1=O (centres unmarked),2.24
17,CCSc1nnc(Cn2c(=O)sc3ccccc32)n1C,16.2
18,COc1ccc(/C=N/NC(=O)c2ccn[nH]2)cc1CN1CCOCC1,-14.8
19,CCOC(=O)c1cnc(SCc2nc(N)nc(Nc3ccc(OC)cc3)n2)nc1N,8.19
20,COCCOC(=O)C1=C(C)N(c2ccccc2)C(=S)NC1c1ccccc1C(F)(F)F (centres unmarked),-5.87
21,O=c1oc(-c2cccs2)nc2sc3c(c12)CCC3,4.93
22,O=C(Nc1ccc(F)cc1F)C1CCCN(c2ncnc3c2nc2n3CCCCC2)C1 (centres unmarked),-62
23,Cn1c(SCC(=O)Nc2nccs2)nnc1C1CC1,13.4

row,Compound,"hERG current change (%, negative = inhibition) at 10uM [%]"
1,Cc1cc(C)cc(OCC(=O)OCc2nnc(-c3ccccc3)o2)c1,12.4
2,C=CCNC(=O)/C(=C\c1ccc2c(c1)OCO2)NC(=O)c1ccc(Br)cc1,-30
3,COC(=O)C1=C(c2ccc(F)cc2OCc2ccccc2)C[C@@H]2CC[C@H]1N2C(=O)NCCO,3.42
4,COc1cccc(CNC(=O)CCNS(=O)(=O)c2cccs2)c1,-5.11
5,O=C(Nc1cccc(Cl)c1)N(CCN1CCOCC1)Cc1cccc(Cl)c1,-22.1
6,c1ccc2sc(NC3=NCN(Cc4ccc5c(c4)OCO5)CN3)nc2c1,4.28
7,CC(C)Oc1ccc(CC2CCC(=O)N(C)C2=O)cc1 (centres unmarked),-13
8,Cc1nc(N(C)C)c2sc(=S)n(C)c2n1,-6.82
9,Oc1ccc(Cl)cc1C=Nc1ccc(Br)cc1,10.1
10,COc1ccc(CN2CCN(C)CC2)cc1OCc1ccccc1,-19
11,O=C(O)c1ccc(/C=N/NC(=O)c2ccc3c(c2)OCCO3)cc1,16.1
12,CCSc1nnc(NC(=O)COc2ccc(Cl)cc2)s1,24
13,CCn1c(SCC(=O)NC2CCCC2)nnc1-c1ccoc1C,14
14,O=C(CCc1ccccc1)NN1C(=O)C2C3C=CC(O3)C2C1=O (centres unmarked),17.2
15,Cc1ccc(S(=O)(=O)N(C)CC(=O)OCc2nnc(-c3ccccc3)o2)cc1,-39.4
16,C=CCN1C(=O)/C(=C/C=C2/N(CC)c3ccc(S(=O)(=O)N(C)C)cc3N2CC)SC1=S,-56
17,Cc1ccc(NC(=O)COC(=O)CN2CCCCCC2=O)cc1C,-21.1
18,Nc1nc(N)nc(COc2ccccc2)n1,22.3
19,CCN(CC)S(=O)(=O)c1ccc(OC)c(NC(=S)Nc2cccc(C)c2)c1,-12.5
20,CSc1ccc(S(=O)(=O)NCC(=O)OC(C)C(=O)NCc2ccccc2)cc1[N+](=O)[O-] (centres unmarked),-36.2
